The text below walks through data of paper PMC4336329 (PLoS ONE, 2015).

Each structure is given as a SMILES string. Among all 310,000 compounds or so, about 14,000 (4.5%) showed an effect of 50% or more. Effects have a minus sign here. Some of the results follow.
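Also: peak tail current of the secondary pulse compared with the same well before compound.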

Sequence of human ether-à-go-go-related gene (hERG) potassium channel (Q12809 whole entry, looked up): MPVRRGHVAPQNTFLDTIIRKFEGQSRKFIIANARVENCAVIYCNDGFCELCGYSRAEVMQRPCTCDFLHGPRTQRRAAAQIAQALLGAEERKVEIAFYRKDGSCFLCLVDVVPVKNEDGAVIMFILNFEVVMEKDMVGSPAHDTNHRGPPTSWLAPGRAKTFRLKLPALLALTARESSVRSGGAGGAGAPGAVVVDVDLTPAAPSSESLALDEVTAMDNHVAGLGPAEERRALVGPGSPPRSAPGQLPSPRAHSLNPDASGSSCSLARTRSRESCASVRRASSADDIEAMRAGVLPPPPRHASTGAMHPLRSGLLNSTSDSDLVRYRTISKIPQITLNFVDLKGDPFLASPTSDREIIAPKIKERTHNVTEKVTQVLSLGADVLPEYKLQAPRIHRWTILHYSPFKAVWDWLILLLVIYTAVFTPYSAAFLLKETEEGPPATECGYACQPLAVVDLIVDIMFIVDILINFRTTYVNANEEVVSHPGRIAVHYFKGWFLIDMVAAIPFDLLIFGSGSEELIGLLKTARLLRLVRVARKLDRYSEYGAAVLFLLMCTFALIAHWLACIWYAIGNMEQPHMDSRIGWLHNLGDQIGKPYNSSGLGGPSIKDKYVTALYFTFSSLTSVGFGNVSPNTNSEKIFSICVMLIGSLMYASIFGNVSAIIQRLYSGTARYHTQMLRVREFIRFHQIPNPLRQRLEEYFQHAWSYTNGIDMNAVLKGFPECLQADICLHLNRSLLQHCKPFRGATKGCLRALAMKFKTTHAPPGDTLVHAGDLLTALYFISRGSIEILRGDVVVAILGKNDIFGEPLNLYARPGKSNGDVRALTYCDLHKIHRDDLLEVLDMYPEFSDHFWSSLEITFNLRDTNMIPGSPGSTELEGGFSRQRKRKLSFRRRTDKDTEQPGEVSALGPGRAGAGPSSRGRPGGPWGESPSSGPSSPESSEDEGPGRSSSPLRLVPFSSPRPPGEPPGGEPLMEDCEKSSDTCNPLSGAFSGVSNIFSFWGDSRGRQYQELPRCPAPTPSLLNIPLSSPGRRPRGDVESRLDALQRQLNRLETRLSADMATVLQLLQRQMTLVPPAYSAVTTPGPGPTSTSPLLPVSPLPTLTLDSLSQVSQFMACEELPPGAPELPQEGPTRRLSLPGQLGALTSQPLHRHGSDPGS

This test addresses human ether-à-go-go-related gene (hERG) potassium channel (human, UniProt Q12809). The test can be described thus: primary screen, population patch clamp on CHO cells stably expressing hERG.
Regarding `N#CCCn1cnc2c(=S)nc[nH]c21`, the “hERG current change (%, negative = inhibition) at 10uM” value is reported as -11.2%.
Next, `O=C(O)c1cccnc1Sc1ccccc1`: 23.6%; `CCOc1cc(S(=O)(=O)NC2CC2)c(OCC)cc1-n1cnnn1`: -15.5%.
For the molecule `CC(C)CC(=O)NC(c1ccccc1)c1c(O)ccc2ccccc12` (centres unmarked), the “hERG current change (%, negative = inhibition) at 10uM” value is reported as 13.1%.
The value for `O=C(O)C1CCCCC1C(=O)NCCCc1ccccc1` (centres unmarked) was -0.181%.
Take `CCn1ncc(C2=NOC(C(=O)Nc3cc(OC)c(Cl)cc3OC)C2)c1C` (centres unmarked): the “hERG current change (%, negative = inhibition) at 10uM” value is recorded as -7%.
The value for `CCNC(=O)COc1ccc(/C=N/NC(=O)c2cccnc2)cc1OC` was 38.3%; that for `COc1cccc(OCC(O)CN2CCN(CCN3C(=O)c4cccc5cccc(c45)C3=O)CC2)c1.Cl` (centres unmarked) was -59.2%.
Next, `CCNc1nc2nonc2nc1NCC`: -7.93%.
Next, `CCC1=C(OC(=O)N(CC)CC)N2C(=O)OC(=NCC3CC3)[C@]2(C)[C@H]2C1=CC[C@H]1C(=O)N(CC)C(=O)[C@H]12`: 9.28%.
`CN1CCCN(S(=O)(=O)c2cccc(Cl)c2Cl)CC1.Cl`: the “hERG current change (%, negative = inhibition) at 10uM” value is given as -14.7%.
For `COc1cccc(CNc2ccc([N+](=O)[O-])c(NCC(=O)O)n2)c1`, the “hERG current change (%, negative = inhibition) at 10uM” value is recorded as 7.23%.
The value for `Cc1nnc2sc(SCC(=O)Nc3nccs3)nn2c1=O` was 26.3%.
The value for `CC(C)c1ccc(/C=N\NC(=O)c2ccc(Cn3cccn3)o2)cc1` was -42%.
On to `Cc1ccc(C)c(OCC(=O)N2CCN(C(=O)c3ccco3)CC2)c1`, for which the “hERG current change (%, negative = inhibition) at 10uM” value was -8.23%.
The value for `COc1ccc(CNC(=O)C2CCN(S(=O)(=O)N3CCCCC3)CC2)cc1` was 7.64%; that for `O=C(/C(=N\Nc1ccccc1)Sc1nnnn1-c1ccccc1)c1ccccc1` was 8.78%; that for `Cc1cccc(-n2nnc3cnn(C)c3c2=O)c1` was 1.94%.
For the molecule `CCCCN(CCCC)CCNC(=O)CN1C(=O)COc2ccc(S(=O)(=O)N3CCC(C)CC3)cc21`, the “hERG current change (%, negative = inhibition) at 10uM” value was -66.5%.
As for `CNC(=O)c1cc2cc(OC)ccc2n1CCN(Cc1ccccc1)Cc1ccccc1.Cl`, the “hERG current change (%, negative = inhibition) at 10uM” value came to 14.1%.
Next, `CN(C)CCC1CCN(c2cc(C#N)c(C#N)cc2[N+](=O)[O-])CC1`: -34%; `COC(=O)c1cc(C(=O)OC)[nH]n1`: 40.5%; `Cc1ccc(OC(=O)CCc2c(C)nc3ncnn3c2C)cc1`: -8.47%.
On to `N#C/C(=C/c1ccccc1OCc1ccc(F)cc1)c1ccc(C(=O)O)cc1`, for which the “hERG current change (%, negative = inhibition) at 10uM” value amounted to 17.9%.
Next, `S=C(N/N=C/c1cccc2ccccc12)Nc1cccc(Cl)c1`: 11.1%; `COCCN1C(=O)/C(=C/c2ccc(N3CCCC3)cc2C)SC1=S`: 8.95%.
Consider `C#CCOCCOCCOCCNc1nc(N2CCN(C(=O)[C@H]([C@@H](C)CC)n3cc([C@@H](N)CO)nn3)CC2)nc(N2CCN(C(=O)[C@H](CCCCN)n3cc([C@@H](N)CC(C)C)nn3)CC2)n1.Cl`, for which the “hERG current change (%, negative = inhibition) at 10uM” value was -0.687%.
On to `O=C1CCc2cc(S(=O)(=O)NC(Cc3ccccc3)C(=O)NC3CCCC3)ccc2N1` (centres unmarked), for which the “hERG current change (%, negative = inhibition) at 10uM” value is on record as 13.5%.
Turning to `Cc1ccc(C(=O)NCCCC(=O)O)o1`, the “hERG current change (%, negative = inhibition) at 10uM” value came to 0.2%.
Next, `O=C(N[C@@H](Cc1ccccc1)C(=O)O)c1c(F)c(F)c(F)c(F)c1F`: 9.16%; `C=CCn1c(SCc2nc3ccccc3[nH]2)nnc1-c1ccncc1`: -20.6%.
The value for `Cc1cc(C)nc(NC(=O)NS(=O)(=O)N2CCCCCC2)n1` was 6.91%.
As to `Cc1[nH][nH]c(=O)c1C(c1cc([N+](=O)[O-])ccc1O)c1c(C)[nH][nH]c1=O`, the “hERG current change (%, negative = inhibition) at 10uM” value is recorded as -62.5%.
On to `COC(=O)C1=C(c2ccc(F)cc2OCc2ccccc2)C[C@@H]2CC[C@H]1N2C(=O)NCc1cccc(F)c1`, for which the “hERG current change (%, negative = inhibition) at 10uM” value amounted to 22%.
For the molecule `CCC(=O)NCCNc1nc2cc(C)cc(C)c2cc1C#N`, the “hERG current change (%, negative = inhibition) at 10uM” value worked out at 58.1%.
On to `CCn1c(Cc2cccs2)nnc1SCC(=O)c1ccc(C)cc1`, for which the “hERG current change (%, negative = inhibition) at 10uM” value is -33.2%.
Next, `Cc1oc(-c2cccc(Br)c2)[n+]([O-])c1C`: -3.76%.
Next, `COc1ccc(Cl)cc1-c1nc(-c2ccc(NC(=O)c3cccs3)cc2)no1`: -5.55%.
With `COc1cccc(CC2(CO)CCCN(Cc3ccc(OC)c(C)c3OC)C2)c1` (centres unmarked), the “hERG current change (%, negative = inhibition) at 10uM” value is -77.6%.
The value for `CCOc1ccc(NC(=O)CN(C)C(=O)c2ccc(COc3ccccc3)o2)cc1OCC` was -11.9%; that for `Cc1cccc(NC(=O)Cn2cc(C=O)c3ccccc32)c1` was 16.5%.
Next, `CC(C)=CC1C(C(=O)NCCc2ccccc2)C1(C)C` (centres unmarked): -17.9%.
For the molecule `CCCc1cc(=O)[nH]c(SCC(=O)NCCC2=CCCCC2)n1`, the “hERG current change (%, negative = inhibition) at 10uM” value was -11.2%.
With `Cl.c1ccc2c(N3CCCCC3)ncnc2c1`, the “hERG current change (%, negative = inhibition) at 10uM” value came out at 1.44%.
Next, `C(=N\N1CCOCC1)/c1cccs1`: 3.96%.
Consider `Cc1cc(C)c(CN2CCC(n3nccc3NC(=O)c3ccccc3Cl)CC2)cc1C`, for which the “hERG current change (%, negative = inhibition) at 10uM” value is -50.8%.
The value for `CCOc1ccc(NS(=O)(=O)c2ccc(C(=O)N(C)CCc3ccc(OC)c(OC)c3)cc2)cc1` was 5.44%.
Turning to `CCOC(=O)C1CCN(C(=O)Cn2nc(C)n3cccc3c2=O)CC1`, the “hERG current change (%, negative = inhibition) at 10uM” value is given as 2.72%.
Next, `O=C(Nc1cnn(Cc2c(Cl)cccc2Cl)c1)c1ccc([N+](=O)[O-])cc1`: -9.9%; `CCCc1cnc(N2CCN(C(=O)c3ccccc3)CC2)nc1`: -57.1%.
With `COc1ccccc1N1CCN(Cc2cccc(OC)c2O)CC1`, the “hERG current change (%, negative = inhibition) at 10uM” value is recorded as -64.9%.
For `Cc1cc(C)c2nc(-c3cccc(Cl)c3)c(C)c(C(=O)N3CCOCC3)c2c1`, the “hERG current change (%, negative = inhibition) at 10uM” value is recorded as -0.85%.
For the molecule `O=C(NCCN1CCN(c2ccccc2)CC1)Nc1ccc(Cl)cc1`, the “hERG current change (%, negative = inhibition) at 10uM” value was -45.5%.
The value for `CCSc1cc(N2CCOCC2)nc(-c2ccccc2)n1` was 2.54%; that for `O=C(CCNS(=O)(=O)c1ccc(Cl)cc1)OCC(=O)N1CCN(C(=O)c2ccco2)CC1` was -47.4%; that for `O=C(C[n+]1cccc(CO)c1)Nc1nc2ccccc2s1.[Cl-]` was -9.18%.
